Measured values from paper PMC4336329 (PLoS ONE, 2015).
Among all 310,000 compounds or so, about 14,000 (4.5%) showed an effect of 50% or more. Effects have a minus sign here. Some of the results follow.

These molecules were tested against human ether-à-go-go-related gene (hERG) potassium channel (human, UniProt Q12809) (assay: primary screen, population patch clamp on CHO cells stably expressing hERG).
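Note: peak tail current of the secondary pulse compared with the same well before compound.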

human ether-à-go-go-related gene (hERG) potassium channel, sequence (Q12809 whole entry, looked up): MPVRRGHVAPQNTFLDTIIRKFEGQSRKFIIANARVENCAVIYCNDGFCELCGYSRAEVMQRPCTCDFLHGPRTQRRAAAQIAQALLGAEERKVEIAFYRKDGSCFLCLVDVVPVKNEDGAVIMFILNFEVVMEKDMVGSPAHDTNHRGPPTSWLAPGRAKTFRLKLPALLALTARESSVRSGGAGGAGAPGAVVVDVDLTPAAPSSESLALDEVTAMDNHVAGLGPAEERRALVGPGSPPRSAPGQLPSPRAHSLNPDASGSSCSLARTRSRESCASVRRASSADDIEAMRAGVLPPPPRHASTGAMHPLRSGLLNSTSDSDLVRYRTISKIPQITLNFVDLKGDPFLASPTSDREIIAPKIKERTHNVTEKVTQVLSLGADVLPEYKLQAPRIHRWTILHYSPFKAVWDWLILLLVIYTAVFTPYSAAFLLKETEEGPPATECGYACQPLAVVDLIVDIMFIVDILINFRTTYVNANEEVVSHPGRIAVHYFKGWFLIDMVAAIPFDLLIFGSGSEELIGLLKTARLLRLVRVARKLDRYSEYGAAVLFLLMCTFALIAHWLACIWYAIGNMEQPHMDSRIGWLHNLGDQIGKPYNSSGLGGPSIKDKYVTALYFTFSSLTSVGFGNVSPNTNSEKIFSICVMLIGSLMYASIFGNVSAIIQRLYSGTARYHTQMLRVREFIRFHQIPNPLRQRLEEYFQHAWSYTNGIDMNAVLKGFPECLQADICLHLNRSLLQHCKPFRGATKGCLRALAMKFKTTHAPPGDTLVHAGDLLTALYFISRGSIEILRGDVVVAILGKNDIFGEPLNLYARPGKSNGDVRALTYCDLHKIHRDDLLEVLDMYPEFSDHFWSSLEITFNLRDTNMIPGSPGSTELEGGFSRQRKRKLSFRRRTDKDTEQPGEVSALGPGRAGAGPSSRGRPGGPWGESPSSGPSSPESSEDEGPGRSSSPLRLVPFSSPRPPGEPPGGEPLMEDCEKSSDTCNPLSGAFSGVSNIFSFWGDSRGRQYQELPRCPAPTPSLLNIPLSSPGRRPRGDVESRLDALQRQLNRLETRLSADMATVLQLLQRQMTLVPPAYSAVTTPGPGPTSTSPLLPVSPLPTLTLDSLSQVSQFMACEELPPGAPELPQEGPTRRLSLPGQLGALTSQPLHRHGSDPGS

SMILES	hERG current change (%, negative = inhibition) at 10uM [%]
CCCCN(C)C1CCN(C(=S)Nc2ccc(OC)cc2)CC1	-26
NNC(=O)CSc1nnnn1-c1ccccc1	-22.3
CN1CCN(C(c2cccc(C(F)(F)F)c2)c2nnnn2C(C)(C)C)CC1 (stereo not drawn)	2.28
Oc1ccc(-c2nccc(-c3ccc(Br)cc3)n2)cc1	18.7
CC(C)CCN1C(=O)c2ccc(C(=O)NCc3ccco3)cc2C1=O	-13.3
COc1cccc(S(=O)(=O)Nc2ccc3sc(C)nc3c2)c1	-14.2
Cc1ccc(C2c3c(C)nn(-c4ccc([N+](=O)[O-])cc4)c3N=C3C(=O)Nc4ccccc4N32)cc1 (stereo not drawn)	2.32
O=C1C2C3C=CC(C3)C2C(=O)N1c1cccnc1 (stereo not drawn)	12.9
COc1cc(C(=O)NCc2ccc3c(c2)OCO3)ccc1OCc1c(C)noc1C	-2
CC1CN(C2CCN(S(=O)(=O)Cc3ccccc3)CC2)CC(C)O1 (stereo not drawn)	-23.2
CC(C)c1ccc2oc(=O)cc(CN3CCN(Cc4ccccc4)CC3)c2c1	17.5
O=C(CCc1n[nH]c(=O)[nH]c1=O)N/N=C/c1ccc(Br)o1	16.2
O=C(Nc1cccc(C(=O)Nc2ccccc2F)c1)c1ccccc1	4.84
CCCSc1cc(N2CCCC2)nc(-c2ccccc2)n1	15.5
COc1ccc(CNC(C)C23CC4CC(CC(C4)C2)C3)c(OC)c1OC.Cl (stereo not drawn)	-5.24
CCNS(=O)(=O)c1ccc(CCC(=O)N2CCN(c3cccc(Cl)c3)CC2)cc1	-32.7
C=C(C)CNC(=S)N/N=C/C1=CCC2CC1C2(C)C (stereo not drawn)	-0.625
Cc1ccc(S(=O)(=O)Nc2cc(C(=O)Nc3cc(C)cc(C)c3)ccc2Cl)cc1	-5.44
c1cncc(-c2nc(NCC3COc4ccccc4O3)c3ccccc3n2)c1 (stereo not drawn)	-16
CCn1cc(C(=O)NCc2ccccc2)c(=O)c2cc(F)c(N3CCN(C(=O)c4ccco4)CC3)cc21	-39.6
O=C(Cc1cccs1)N(Cc1ccco1)C1(C(=O)NC2CCCC2)CCCCC1	-14.3

SMILES	hERG current change (%, negative = inhibition) at 10uM [%]
O=C(NCc1ccco1)c1cc2cc3ccc(Cl)cc3nc2o1	4.32
Cc1cccc(-n2c(C)cc(/C=C3\C(=N)N4N=C(CC(C)C)SC4=NC3=O)c2C)c1	0.695
O=C(NCCc1ccccc1)C1CCN(C2CCN(Cc3ccc(CO)o3)CC2)CC1	18.2
Cn1c(CC(=O)Nc2ccccc2)nnc1SCC(=O)NC1=NCCS1	12.7
Cc1ccc(C(=O)N(Nc2nc3ccccc3s2)C(=O)c2ccc(C)cc2)cc1	11.1
O=C(Cc1ccsc1)N1CCN(S(=O)(=O)c2cccc(F)c2)CC1	-3.85
Cc1ccc(-c2cc(-c3ccccc3)c(C#N)c(N)n2)o1	3.29
COc1ccc([C@H]2/C=C\CN(S(=O)(=O)/C=C/c3ccccc3)[C@@H](C)C(=O)N2Cc2ccc(F)cc2)cc1	-47.7
CCn1nc(C)c(CNC(=O)CC2C(=O)NCCN2Cc2ccc(C)o2)c1C (stereo not drawn)	-68.4
COc1cc(OC)cc(-c2nnc(SCC(=O)N3CCCc4ccccc43)o2)c1	-7.63
C1=NCCc2c1[nH]c1ccccc21.[O-][Cl+3]([O-])([O-])O	-14.8
Cc1ccc(C(=O)c2cncc(Br)c2)cc1	-3.32
Cc1ccc(-n2c(Cc3cccn3C)nnc2SCC(=O)Nc2nnc(C)s2)cc1	-13.6
COC(=O)C1(C(=O)OC)NOC2C(=O)N(c3ccc(Cl)cc3Cl)C(=O)C21 (stereo not drawn)	-3.03
O=C(Nc1ccccn1)c1ccc(S(=O)(=O)c2ccc(Cl)cc2)cc1	7.85
Cc1c(NC(=O)CN2C(=O)c3ccccc3S2(=O)=O)c(=O)n(-c2ccccc2)n1C	9.79
Cc1ccsc1/C=C/C1=Cc2c(sc(NC(=O)CSc3n[nH]c(N)n3)c2C#N)C(C)(C)C1	2.34
CCOc1ccc(NC(=O)CN(c2ccc(OC)cc2)S(=O)(=O)c2cccs2)cc1	8.75
CC(C)CC1Nc2ncnc(N3CCOCC3)c2N(Cc2ccc(Br)cc2)C1=O.O=C(O)C(F)(F)F (stereo not drawn)	-32.5
O=C(CNS(=O)(=O)c1ccc(F)cc1)N1CCCC1	12
O=C(Nc1ccc(Cl)cc1)[C@@H]1[C@@H]2C(=O)N(c3ccc(Cl)cc3)C(=O)[C@@H]2[C@H]2C=CC=NN21	-24.1

SMILES	hERG current change (%, negative = inhibition) at 10uM [%]
O=C(O)c1cc(-c2ccc(/C=N/NC(=S)Nc3ccccc3)o2)ccc1Cl	11.9
CC(C)(C)C(=O)/C=C/c1ccc(Oc2ccccc2)cc1	11.3
O=C(O)/C(=C\c1c(C(=O)O)[nH]c2cc(Cl)cc(Cl)c12)c1ccccc1	13.3
O=C(Nc1nc2c(F)cc(F)cc2s1)C1CC(=O)N(Cc2ccco2)C1 (stereo not drawn)	-38.4
CC(C)COc1cccc(-c2cc(C(=O)N/N=C/c3ccncc3)c3ccccc3n2)c1	6.44
COc1cc(C#N)ccc1OC(=O)Cc1cc(OC)c(OC)c(OC)c1	16.3
Cc1cccc(C)c1-n1c(C)cc(/C=N\NC(=O)CC(=O)NC2CCCCC2)c1C	-3.61
Cc1cc(/C=C2/NC(=O)N(c3ccccc3)C2=O)c(C)n1-c1cccnc1	-41.1
COc1ccccc1NC(=O)c1ccc(Cl)c(S(=O)(=O)N2CCOCC2)c1	-25.6
CN1C(=O)NC(=O)/C(=C/c2ccc(C(=O)O)cc2)C1=O	1.07
Cc1ccc(/C=N/NC(=O)c2ccc3c(c2)OCCO3)s1	1.53
O=C(NC1CCCCC1)C(Cc1ccccc1)N1C(=O)C2C3CCC(C3)C2C1=O (stereo not drawn)	-16.2
COc1ccc(NC(=O)CN(C)C(=O)c2ccc(COc3ccccc3)o2)cc1	-12.1
Cc1ccccc1Sc1ccc(N)cn1	13.2
CCOc1ccccc1OCC(=O)Nc1ccc(N2CCCCC2)cc1	7.15
COc1cc(NC(C)CCCN)c2ncccc2c1Oc1ccccc1.O=C(O)CCC(=O)O (stereo not drawn)	-4.78
Cc1cncn1CCc1nc2c3ccccc3nc(SCC(=O)Nc3cccc(Cl)c3)n2n1	-78.4
CC(=O)c1ccc(N2CCN(S(=O)(=O)c3cc4[nH]c(=O)c(=O)[nH]c4cc3C)CC2)cc1	5.43
CC(C)NC(=O)C1(O)c2ccccc2NC(=O)N1c1ccc(Cl)c(Cl)c1 (stereo not drawn)	9.1
COc1ccc(OC)c(/C=N/N(C)c2ccccc2)c1	3.77
COc1ccc(N2C(N)=C(C#N)C(c3ccsc3)C3=C2CCCC3=O)c(OC)c1 (stereo not drawn)	-19.6

SMILES	hERG current change (%, negative = inhibition) at 10uM [%]
C=C(C)C(=O)Nc1cccc(C2=NOC3(C2)C[C@@H](C(N)=O)N(C(=O)[C@H]2CCC(=O)N2)C3)c1 (stereo partly drawn)	-0.161
COc1cc2[nH]c(=S)n(C3CCN(Cc4ccccc4)CC3)c(=O)c2cc1OC	-26.6
CCOC(=O)c1sc2ncnc(NCc3ccco3)c2c1C	-3.31
Cc1cccc(OCc2nnc(SCC(=O)NC3CCCCC3)n2C)c1	-0.348
Cc1nnc(SCC(=O)Nc2ccc(N3CCOCC3)cc2)n1Cc1ccccc1	-3.51
NC(=O)c1ccc(NC(=O)CCc2nc3ccccc3s2)cc1	2.49
CC(C)c1ccc(N(C(=O)c2ccco2)C(C(=O)NC2CCCC2)c2ccncc2)cc1 (stereo not drawn)	-42
O=C(Nc1cccc(-c2nc3cccnc3s2)c1)c1ccco1	-14.9
Oc1[nH]c2ccccc2c1N=Nc1c(F)c(F)c(Cl)c(F)c1F	8.9
Cc1ccc(-c2nnn(CC(=O)N(CCN3CCOCC3)C(C(=O)NC(C)(C)C)c3ccco3)n2)cc1 (stereo not drawn)	13.7
COc1ccc(OC)c(CCNC(=O)c2cccc(NC3=NC4CS(=O)(=O)CC4S3)c2)c1 (stereo not drawn)	-5.79
COc1ccc(-c2noc(COc3ccccc3OC)n2)cc1OC	-4.35
O=C(Nc1ccccc1)OCCOc1cccc(Br)c1	1.49
O=C(CN1CCN(c2ccc(F)cc2)CC1)NCc1ccc(F)cc1	-43.9
CCOC(=O)c1ccc(Oc2cc(C)nc(SC)n2)cc1	-20.6
Cc1ccc(S(=O)(=O)N2CCCCCC2)cc1C(=O)NCc1ccccn1	-14.8
O=S(=O)(c1cccc(-c2nc3n(n2)Cc2ccccc2-3)c1)N1CCCCC1	7.91
Cc1ccc2nc(-c3ccc(-c4ccccn4)s3)cn2c1	-1.76
CC1CN(Cc2ccccc2)c2nc3c(c(=O)n(CC(N)=O)c(=O)n3C)n2C1 (stereo not drawn)	14.5
CN(C)C(=O)c1ccc(NC(=O)COc2ccc([N+](=O)[O-])cc2)cc1	-38.3
Cc1nn(C(=O)c2c(-c3ccccc3)noc2C)c(C)c1N=Nc1cc(C(F)(F)F)cc(C(F)(F)F)c1	14.6
